In publication PMC12136788:
The other results are listed elsewhere or left out.

B1: chr3:113720845:113720875:-|3pUTR|ENSG00000121579|msi1_unk|total|mutant (ssRNA)
RNA: GGGAGUUCUACAGUCCGACGAUCCCUUUUUCUUCAGUAAACCCAACAACCGUCUAACCUUAAAAAUUGAGUUGAUGUCCUUACCGGUCACUACCCCUAAAUAAACCUGAAGCAGGUGUUUUCUCUUGGACAUACUAAAAAAUACAACAGAGGAUUGAGCAUCA
B2: ENSG00000136451:be:win_2751|3pUTR|ENSG00000136451|bound_else_gene|NA|bound_elsewhere_windowed (ssRNA)
RNA: GGGAGUUCUACAGUCCGACGAUCCUUUGUGGUGUUUUCAGGGAGACAGCUGUCUGCAUUCCCUGUAGAAACCCAGCAAUGAUUAUGCACGUUGAGACAUGUGCUUUUUAUUUCUUAGCAAGAUAUUUUAUCUCUGUACAUAAACAACAGAGGAUUGAGCAUCA
B3: chr8:143707665:143708109:-|CDS|ENSG00000255181|control|control|control (ssRNA)
RNA: GGGAGUUCUACAGUCCGACGAUCGCGCGCCCAGCGCUGCGCCAAAGCCAUCGUCCGGCUGGACGAGCAGAACCGCGUGGACCUAGCGCAGAUCCACUGGCAGCGGGCGGAACUGGCCUCGCUCUACCACGGGCGCGAGGACGGCAACAGAGGAUUGAGCAUCA
B4: chr4:65323451:65323552:-|3pUTR|ENSG00000145242|msi1|FALSE|unique (ssRNA)
RNA: GGGAGUUCUACAGUCCGACGAUCAUCAAGAAAAAGUACAAUACAGGGUGUAUAUUUAUUUUUUGUGUUAUAAAGUUUACUUUUAGUUGCUCUUCUAGAGAUUAUUAGGUAAUAAAUGUGUAUAUACUGUAUAAUUUGCAAUAUCAACAGAGGAUUGAGCAUCA
B5: chr10:72011604:72011705:+|3pUTR|ENSG00000122863|msi1|FALSE|unique (ssRNA)
RNA: GGGAGUUCUACAGUCCGACGAUCCACCUGCCCGGAGACAGAGGGAGCAGCUGAGGCCUCUCUCCACUGGCCGCCAGCCUCCCUAGCACAAGGGGACCAUUCAGCAAUGAGUGUUUACUCAUGUUCUUUCUUGUUGAUGAGUUCCAACAGAGGAUUGAGCAUCA
B6: chr6:111661451:111661552:-|3pUTR|ENSG00000010810|msi1|total|mutant (ssRNA)
RNA: GGGAGUUCUACAGUCCGACGAUCCUUUGGAAAAUGCAUUGUAUCGAUGUUAUGUAAAAGGCCAAACCUCUGUUCAGUGUAAACCGUUACUCCAGUGCCAACAAUCCCCGUGCUUUCCUUUUUUAAAAAUGCAAAUCCUAUGUGCAACAGAGGAUUGAGCAUCA
B7: chr5:91369659:91369760:-|3pUTR|ENSG00000113369|msi1|FALSE|bound_elsewhere (ssRNA)
RNA: GGGAGUUCUACAGUCCGACGAUCUCAGCAUUUUCCAAGGUACCAAGUGUACUUAUUUUGUUGUUGUUGUUGUUGUUGUAUUUUAGAAGGAAUUCAGCUCUGAUGUUUUUAAAGAAAACCAGCAUCUCUGAUGUUGCAACAUACCAACAGAGGAUUGAGCAUCA
B8: chr16:67098774:67098826:+|CDS_3pUTR|ENSG00000067955|msi1_unk|FALSE|overlapping (ssRNA)
RNA: GGGAGUUCUACAGUCCGACGAUCAGACCCUAGUCCUGGUUCCAAUUUAGGUGGUGGUGAUGACCUCAAACUUCGUUAAUUAAUAGCACAGCAGAUGUGUGCUGCCCAUCUUUACAUACACAUUGCUUCUAGUUGGCAGAAAUACAACAGAGGAUUGAGCAUCA
B9: chr7:139045324:139045425:-|3pUTR|ENSG00000105939|msi1|total|mutant (ssRNA)
RNA: GGGAGUUCUACAGUCCGACGAUCAGUUCAAAACCGCUGUCAUGGCCCCAUGUGAUCUCUCCCUCCCCUACCCCUCUAUCAUUCCGUUUCUUCUGCGCAAGCCACUCUGGCUUCCUUUCAGUUUUGUGGUUCCCAUUUUCCGCUCAACAGAGGAUUGAGCAUCA
B10: chr11:77702383:77702481:-|5pUTR_CDS|ENSG00000048649|msi1_unk|total|mutant (ssRNA)
RNA: GGGAGUUCUACAGUCCGACGAUCAUUUUCCGAGGAACAGAAAGAAAGUGAAAAGAUGAAAAGUGAGGAGCAGCCUAUGGAUUCCGAAAACCGUUCUACAGCCAAUGUUCCCGAAGAGACUACUGUGAAAAAAGAAAAAGAAGACAACAGAGGAUUGAGCAUCA
B11: chr5:40767470:40767586:-|CDS|ENSG00000132356|unk|FALSE|unique (ssRNA)
RNA: GGGAGUUCUACAGUCCGACGAUCUUUAAGAAGAUAUGUGAUGGGAUCUUCUAUACCCCUCAAUAUUUAAAUCCUUCUGUGAUUAGCCUUUUGAAACAUAUGCUGCAGGUGGAUCCCAUGAAGAGGGCCACAAUCAAAGAUAUCCAACAGAGGAUUGAGCAUCA
B12: ENSG00000120708:stop:overlap|stop_codon|ENSG00000120708|stop_codon|NA|stop_codon (ssRNA)
RNA: GGGAGUUCUACAGUCCGACGAUCCCCAGAGGUCUGUGCGACUAGCCCCUGUCUAUCAAAAGUUAUUAGAGAGGAUGAAGCAUUAGCUUGAAGCACUACAGGAGGAAUGCACCACGGCAGCUCUCCGCCAAUUUCUCUCAGAUUCAACAGAGGAUUGAGCAUCA
B13: ENSG00000092871:stop:overlap|stop_codon|ENSG00000092871|stop_codon|NA|stop_codon (ssRNA)
RNA: GGGAGUUCUACAGUCCGACGAUCCAGGCUUGGAACCAAGCUGCAAGUCCUGUGGGGCUCACUUUGCAAACACGGCCAGGAAGUAGUGCUCAAGAUCACAUAGUUAUUAAAUGACAGAGCCGGGAUUCAAACCCAGGUCCUUGACAACAGAGGAUUGAGCAUCA
B14: chr19:37127587:37127689:+|CDS|ENSG00000197050|unk|FALSE|unique (ssRNA)
RNA: GGGAGUUCUACAGUCCGACGAUCUAUGCAUGUAAGGAAUGUGGGAAGGCCUUUACUCAAAGCUCACAACUUAUUUUACAUCAUAGAAUUCAUACUGGUGAAAAACCAUAUAAAUGUGAAGAAUGUGGGAAAGCCUUUAUUCGUCAACAGAGGAUUGAGCAUCA
B15: chr3:57561443:57561544:+|3pUTR|ENSG00000174840|unk|total|mutant (ssRNA)
RNA: GGGAGUUCUACAGUCCGACGAUCGAAAUUUAAAUAUGAAGCCAAACUUUUUAAAAUCCGAAACUACAAAUGGUUAUACUGAUCCGUGUCCCGCCCCGAGUGGUAACCAUGCUUUACUAAUUCAGUUAUGAAAUACAUUAUUUACAACAGAGGAUUGAGCAUCA
B16: chr8:23844609:23844711:-|3pUTR|ENSG00000159167|msi1|FALSE|unique (ssRNA)
RNA: GGGAGUUCUACAGUCCGACGAUCUUUAGGGGUGUUGACACACCAGUUUUGAGUGUACUGUGCCUGGUUUGAUUUUUUUAAAGUAGUUCCUAUUUUCUAUCCCCCUUAAAGAAAAUUGCAUGAAACUAGGCUUCUGUAAUCAAUCAACAGAGGAUUGAGCAUCA
B17: chrX:93670929:93671783:-|three_prime_utr|ENSG00000186310|control|control|control (ssRNA)
RNA: GGGAGUUCUACAGUCCGACGAUCUCAUACAGCCUUGAAAAAAGUAAAACCCUGACCUGUAACCUGAACACUAUUAUUCCUUAUAGUCAAGUUUUUGUGGUUUCUUGGUAGUCUAUAUUUUAAAAAUAGUCCUAAAAAGUGUCUCAACAGAGGAUUGAGCAUCA
B18: chrX:103676501:103676735:-|CDS|ENSG00000123562|unk|FALSE|unique (ssRNA)
RNA: GGGAGUUCUACAGUCCGACGAUCGGAGGUUAAAGUGAAGAUUCCUGAAGAAUUAAAACCAUGGCUUGUUGAGGACUGGGACUUAGUUACCAGGCAGAAGCAGCUGUUUCAACUCCCUGCCAAGAAAAAUGUAGAUGCAAUUCUCAACAGAGGAUUGAGCAUCA
B19: chr19:8065921:8066260:-|CDS|ENSG00000142449|control|control|control (ssRNA)
RNA: GGGAGUUCUACAGUCCGACGAUCCCUCUCACACCUGGGCCGGGCCGAGCGCAUCCUGGAGCUCCGGCCGGCCCUGGAGGGUCUAGAGGGCCGGAUCCGCUACGUCAUCGUCCGCGGAAACGAGCAAGGUUUCUUUCGCAUGCACAACAGAGGAUUGAGCAUCA
B20: chr10:17315694:17315795:-|3pUTR|ENSG00000148488|unk|total|mutant (ssRNA)
RNA: GGGAGUUCUACAGUCCGACGAUCCUUCUUCCUCCCUGUCCAUCCCACCCUCGUCCCCAGAAAAUUCCUAAUCUGUUUUUCUACCGACAUUUACAUUUUUACACUACCGACUGUUUACAUUUUUCCGAAUUUUAUAUAAAUGGACAACAGAGGAUUGAGCAUCA
B21: ENSG00000198589:be:win_6651|CDS|ENSG00000198589|bound_else_gene|NA|bound_elsewhere_windowed (ssRNA)
RNA: GGGAGUUCUACAGUCCGACGAUCUCUCAACACGAUAGCAGGACGGAGUUAUAAUGACUUAAAUCAGUAUCCAGUGUUUCCUUGGGUCAUCACUAAUUAUGAAUCAGAAGAACUGGAUCUUACCUUGCCCACCAACUUCAGAGACAACAGAGGAUUGAGCAUCA
B22: chr10:128108355:128108456:-|CDS|ENSG00000148773|msi1|total|mutant (ssRNA)
RNA: GGGAGUUCUACAGUCCGACGAUCAGUGGACACUCCAACAAGCACAAAGCAAUGGCCUAAGAGAAGUCUCAGGAAAGCAGAUGCCGAGGAAGAAUUCUCCGCACUCAGGAAACUAACACCAUCAGCAGGGAAAGCCAUGCUUACCAACAGAGGAUUGAGCAUCA

molecular target: MSI1 full-length (mouse, UniProt Q61474 1-362); assay: nsRBNS (natural sequence RNA bind-n-seq); RBNS binding buffer (assumed for nsRBNS): 25 mM Tris pH 7.5, 150 mM KCl, 3 mM MgCl2, 0.01% Triton X-100, 500 ug/ml BSA, 20 U/ml SUPERase-In, 4 C; UNK is unkempt and MSI1 is Musashi-1; names of the RNAs are library labels; protein concentration not given here; high values mean tight binding
UniProt Q61474, sequence (Q61474 whole entry): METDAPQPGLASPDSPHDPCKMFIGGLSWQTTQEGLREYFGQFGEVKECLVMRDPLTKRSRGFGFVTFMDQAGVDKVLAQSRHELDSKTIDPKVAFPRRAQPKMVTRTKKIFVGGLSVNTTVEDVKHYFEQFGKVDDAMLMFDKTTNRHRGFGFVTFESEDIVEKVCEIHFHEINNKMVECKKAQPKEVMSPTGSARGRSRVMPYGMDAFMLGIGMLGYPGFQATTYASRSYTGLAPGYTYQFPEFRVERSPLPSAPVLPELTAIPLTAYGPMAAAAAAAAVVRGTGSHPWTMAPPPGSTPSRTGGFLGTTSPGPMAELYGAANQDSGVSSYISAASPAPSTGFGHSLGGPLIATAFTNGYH

| Binder | binding signal [enrichment R] |
| --- | --- |
| B1 | 0.874 |
| B2 | 0.658 |
| B3 | 0.334 |
| B4 | 11.9 |
| B5 | 0.384 |
| B6 | 0.319 |
| B7 | 0.425 |
| B8 | 2.16 |
| B9 | 0.75 |
| B10 | 0.512 |
| B11 | 0.506 |
| B12 | 0.509 |
| B13 | 0.318 |
| B14 | 0.48 |
| B15 | 1.8 |
| B16 | 2.22 |
| B17 | 9.45 |
| B18 | 0.761 |
| B19 | 0.243 |
| B20 | 1.84 |
| B21 | 0.267 |
| B22 | 0.455 |
